The supplement of paper PMC10126150
Values marked as one replicate rest on one cluster of the flow cell; about a third of the high ones do not repeat.

Test system: ATP
Experiment: switch fluorescence ratio, 500 uM ATP over buffer (Cy3 cluster intensity, sum of 5 cycles each) (fold (ratio)); higher = stronger signal-on switching upon ATP binding; sequences stand for … in TCGTCGGCAGCGTCAGATGTGTATAAGAGACAGTTTTTTTTTTTTTTTTTTTTTTTTT…TC
Details: aptamer strand: ATP DNA aptamer (quencher-CACCTGGGGGAGTATTGCGGAGGAAGG + anchor), 100 nM annealed; ATP concentration: 500 uM; one replicate
In short: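 Cy3-labelled switching-strand clusters on a modified Illumina MiSeq flow-cell were annealed to 100 nM quencher-labelled ATP aptamer, imaged in selection buffer, then imaged after 15 min with 500 uM ATP at 22 °C. Five buffer/ATP cycles ran, with NaOH stripping and re-annealing between them. The fluorescence ratio is summed target-cycle over summed buffer-cycle Cy3 intensity per cluster, averaged per switch-domain sequence. Clusters outside 100-1000 RFU were excluded.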
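Further: ATP exposure 15 min at 22 °C before imaging.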

Sequence | switch fluorescence ratio
CTTCAGATTG | 0.996
TGATGTTTAG | 1.01
GGACAGCCAC | 1.18
TGATTCGGAA | 1.12
ATAGCGCTCT | 0.989
GGATGTACGT | 0.999
CATATTCTGT | 0.992
ATATTTTGCG | 1.03
CACTCTGGTA | 1.02
AAATTAACGG | 1.01
CCGGTTCCAC | 1.14
AGGATCTGGG | 0.973
ACTACGCACT | 2.96
GATAGGGAAA | 0.972
AACTTGTTAA | 0.944
GCGGCAACAT | 0.943
TTTCGCTCTA | 1.01
AAAAGTGTAC | 1.01
GCAGATCGAG | 1.04
ATAAGGTG | 1.45
TGAGTTTATG | 0.958
GGATTTTA | 1.09
GTTATAGTAC | 1.15

Sequence | switch fluorescence ratio
AGATGCTGGA | 1.01
GGCTTTATT | 0.968
CAACGTACCC | 1.5
GTCCGTTGGC | 1.09
CGGGTGATAG | 0.996
TGCTGATCGG | 0.994
ATCCTTGAGC | 1.01
CCCCGGGGGC | 1.84
ACTTTTTCAT | 1.03
GTGCACCGTG | 0.984
TGCTTAGGGC | 1.03
TTAGGAGGAA | 0.972
TGTAGTGCAA | 1.04
CCATCTAATT | 1.03
AATTGAGCAT | 0.979
CCTGATAACA | 0.974
CAGAATCGCA | 1.07
ATAGCGTCAC | 1.06
GATAAGTAGG | 1.03
TACCATGGTC | 1.02
AATATCGCTC | 1.02
CATTTTAATT | 0.975
TACAGTTAAA | 0.973

Sequence | switch fluorescence ratio
TCGATCATGC | 1.19
TGTGTTTAGC | 0.99
GCTATAAGCG | 1.03
CGATGCGTCC | 1.08
TTCGTGGCTA | 1.06
GGCTCCGCCT | 1.09
TATTCTTTCC | 1.21
AGTATGCTAC | 1.06
CCTGAAATCG | 1.08
TCAGTATTG | 1.01
CGTTTAGCCC | 0.976
AAAGCATATG | 0.985
TTGGAAGTTG | 0.956
GAACAGGCGA | 1.07
AGCAGTGGAA | 1.02
TCTCACTTAT | 1.05
GCGTCCAGGC | 0.974
ATATCTTCAA | 0.971
CGGATCGCAC | 3.84
TGCTCGGTGT | 0.996
TTACCTTCGG | 0.951
GGAACGGTCA | 1.04
AGGTATGA | 0.971

Sequence | switch fluorescence ratio
GATAACAGCC | 1.01
GTAACTCGCT | 1.03
GAACGACACG | 1.16
ACGAGCACGG | 1.76
AGCAGCCTGC | 0.969
GCGCGCCTAT | 1.01
CAATTTGTCG | 0.986
GTGCTGGGAA | 0.992
TTGTAGGTTC | 1.27
CTTCGGTATC | 1.67
TGCCCGGGTG | 3.85
AATAAAGTGC | 0.974
TACTCTCTCG | 0.955
TCACAGCTGC | 1.08
GGCCTATCTT | 0.982
GGCTCAAGCA | 0.926
TTGTAAACCA | 1.05
AGTATCATT | 0.987
TTGCACTGCT | 1.2
AATACGGTTT | 1.07
TACATGAGAA | 1.02
GTAAGACTAT | 0.971
ACGTGGTCTA | 1.01

Sequence | switch fluorescence ratio
TTTCGATCCT | 1.02
ACTCGGCGGC | 1.68
GCTCTAGCTG | 1.03
AGTGTAGGCG | 1.01
TGGCCAACTC | 1.13
AAGAAAAGTG | 0.931
TCGGCGGTCC | 0.973
ATGCGTCGAT | 1.01
AACATAGAAA | 1.01
TAGAAAATCT | 1
TGCAAGGGAC | 1.83
TAGAGCTCCG | 1.04
CATAACACAA | 1.04
TTATTTCCAT | 0.986
TGAGTCTATG | 1.02
GACCAGCGGC | 1.02
CGAGCGATAA | 2.79
AGCCGTTGCC | 0.983
ATCTGCACTA | 1.31
ATTGGAAGT | 0.969
TCACTCTGTT | 1.01
ATAAATTTAA | 0.973
ATGTTGGCTG | 1.01

Sequence | switch fluorescence ratio
TTATGGGACT | 0.999
AGCCAGCG | 1.03
GGTTCTTTTA | 0.964
GCCAGCTTGT | 0.98
TTTACGCGAT | 1.13
TCGAGTATTG | 1
GAGTTCGTCT | 1.01
TCGATAGACC | 1.02
TAGTAAGGTA | 0.986
CCAATCTCCA | 1.47
GGTGCAGCTA | 0.979
AGTGGTTACG | 1.04
CTTCGCTTTG | 1.22
CGGTAGTATT | 1.02
TTTCGTAACG | 1.03
CTGGGTACGA | 1.07
TCGTCTGTTT | 1
TTAATCTTG | 1.01
CTGTTCTCGT | 0.954
CATTTCTCCG | 3.26
TTAGTCAGTT | 1.01
CCATAAAAAT | 1.02
CAGTGCACCG | 0.987

Sequence | switch fluorescence ratio
CACTCAGGCC | 1.03
AGTATATTTC | 0.958
AATCCCAGTA | 0.99
TTGGGGAT | 1
TCGGTGGACG | 1.14
CCATGATGCT | 0.971
CGTGGTTGTA | 0.999
ATCTACATTT | 0.989
AAGCCGGTGT | 1.02
AATCGAGAGT | 1.01
GAATGAAACT | 1.04
ACATCATAAC | 0.984
ATCTTGTCTC | 1.01
TTTTAGAAGA | 1.04
TTTGACACAA | 1.98
GTCTTAGTCG | 1.01
TCTTTGCTAA | 1.04
GATTTGGGTG | 1.01
ATCTTCACTT | 1.02
